Results as given in PubChem BioAssay AID624418 (National Center for Advancing Translational Sciences (NCATS), 2012).
Among all 410,000 compounds or so, about 530 (0.13%) were called active. The inconclusive results got no clear call from the source; some entries with a clear call stand among them for comparison. Calls follow the shape of the dose curve; as a rule, active = well fitted inhibition curve with a large enough effect; inconclusive = small, poorly fitted or top-dose-only effect, or another doubt; inactive = no such curve, though single readings can be large or run the other way. Where the call is inconclusive, the potency comes from a doubtful curve fit.

test: qHTS of GLP-1 Receptor Inverse Agonists: Cytotox Screen; details: HEK293 cAMP-luciferase reporter cells, luminescence, 24 h; series mostly up to 38.3 µM
In short: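 Compound-treated cells are incubated 24 hr at 37 deg C under 5% CO2 after a 12 hour attachment period, then luciferase detection reagent is added and luminescence is measured following 12 min at room temperature; lowered signal indicates toxicity.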
Potency is read from the fitted curve at half-maximal effect.

Compound	Potency
COc1ccc(CC(=O)NCc2ccccc2)cc1	inconclusive: 12.6 µM [inhibitor, partial curve, poor fit]
C=CCOC(=O)C1=C[C@@H](c2ccc(Br)cc2)[C@H](CCCO)[C@@H](OCC)O1	inconclusive: 0.794 µM [inhibitor, full curve]
Cc1nn(-c2ccccc2)c2c1N(CCCC(=O)NCc1ccc(OC(C)C)cc1)C(=O)CS2	inconclusive: 12.6 µM [inhibitor, single point]
COc1ccc(C)cc1N=Nc1ccc(O)c2ncccc12	inconclusive: 3.55 µM [inhibitor, full curve, poor fit]
C=CC(=O)N=c1sc2ccccc2n1-c1ccccc1	inconclusive: 22.4 µM [inhibitor, single point]
O=C(C1CCCN(S(=O)(=O)c2cccs2)C1)N1CCN(c2ccccc2F)CC1 (stereo unspecified)	inactive
Cc1ccc(CN(Cc2cccn2-c2nnc(N3CCCC3=O)s2)C(=O)Nc2cc(C)cc(C)c2)cc1	inactive
CN(C(=S)NC(=O)c1ccccc1Br)C1CCCCC1	inconclusive: 10 µM [inhibitor, single point]
COc1ccccc1N1C(=O)c2cccc3c(C(=O)O)ccc(c23)C1=O	inactive
CN(C)C(=O)N1CCN(S(=O)(=O)c2ccc3ccccc3c2)CC1	inactive
N=c1nc2n(cc1F)C1OC(CO)C(O)C1O2 (stereo unspecified)	inactive
CC(C)n1cnc2c(NCc3ccccc3)cc(N[C@H](C)CO)cc21	inconclusive: 11.2 µM [inhibitor, single point]
COc1cc([N+](=O)[O-])ccc1N/C=C/C(=O)c1cccs1	inactive
NC(=S)N/N=C/c1ccc(-c2ccc(Cl)c(Cl)c2)o1	inconclusive: 3.16 µM [inhibitor, partial curve, poor fit]
O=C(NCCc1ccc(Cl)cc1)c1cc(-c2ccccn2)nc2ccccc12	inconclusive: 17.8 µM [inhibitor, single point]
CC(=O)Oc1cc(O)c2c(c1)OC(c1ccc(OC(C)=O)c(OC(C)=O)c1)C(OC(C)=O)C2=O (stereo unspecified)	inconclusive: 28.2 µM [inhibitor, single point]
CNc1nc(Nc2ccc(C)c(Cl)c2)c2cnn(C)c2n1	inactive
C/C(=N\NC(=O)CNc1cccc(C(F)(F)F)c1)c1cccc(Br)c1	inactive
Cc1ccc(NC(=O)N2CCc3ccccc3C2)cc1C	inactive
CCc1ccc(Sc2cc(C(=O)NCCN3CCOCC3)c3ccccc3n2)cc1	inactive
CCCN1CCC(=O)N([C@H](CSc2ccc(C)cc2)c2ccccc2)CC1	inconclusive: 28.2 µM [inhibitor, single point]
CC(C)c1ccc(S(=O)(=O)Nc2cc3c(cc2NCc2ccccc2)n(C)c(=O)n3C)cc1	inactive
CCC(=O)N1CCc2cc(S(=O)(=O)NC(Cc3ccccc3)C(=O)Nc3ccc(Cl)cc3)ccc21 (stereo unspecified)	inactive
CSc1ccc(NC(=O)Nc2cc(C)ccn2)cc1	inactive

Compound	Potency
COC(=O)CCC(=O)OC1(C)C(=O)C2=CN(CC3CC3)C(c3ccc(OC)cc3)=CC2=C(Br)C1=O (stereo unspecified)	inactive
O=C(Nn1nnnc1Nc1ccccc1)C12CC3CC(CC(C3)C1)C2	inconclusive: 28.2 µM [inhibitor, single point]
Oc1ccc(/C=N/Nc2nc(-c3cccnc3)nc3ccccc23)c(O)c1	inconclusive: 8.91 µM [inhibitor, partial curve]
CCC(c1nnnn1Cc1ccc(F)cc1)N(CCCO)Cc1cc2cc3c(cc2[nH]c1=O)OCO3 (stereo unspecified)	inactive
CC(NC(=O)CCC(=O)NC(C)C1COc2ccccc2O1)C1COc2ccccc2O1 (stereo unspecified)	inactive
CCc1sc(C(=O)Nc2ccc3nc(C)sc3c2)cc1C	inconclusive: 12.6 µM [inhibitor, single point]
CCN(CC)c1ccc([N+](=O)[O-])cc1C(=O)N1CCOCC1	inconclusive: 11.2 µM [inhibitor, partial curve, poor fit]
CN1CCN(CCCNC(=O)c2ccc3c(Cl)c4c(nc3c2)CCCC4)CC1	inconclusive: 11.2 µM [inhibitor, single point]
O=C(CSc1nnnn1-c1ccc2c(c1)CCC2)Nc1ccc2c(c1)OCCO2	inconclusive: 28.2 µM [inhibitor, single point]
CC(=O)OCC#CCSc1nc2ccccc2n1C	inactive
CCOC(=O)c1ccc(N2C(=O)c3n[nH]c(-c4ccco4)c3C2c2cccc(F)c2)cc1 (stereo unspecified)	inconclusive: 12.6 µM [inhibitor, single point]
CCOC(=O)C(=O)N/N=C/c1ccco1	inconclusive: 3.16 µM [inhibitor, full curve, poor fit]
COc1cc(/C=C2/C(=O)NN(c3ccc(F)cc3)C2=O)cc(Cl)c1O	inconclusive: 3.55 µM [inhibitor, partial curve, poor fit]
CC(C)(C)c1ccc(C(=O)NC(=S)Nc2nc3c(s2)CCCC3)cc1	inactive
N#Cc1ccc(C(=O)Nc2nc(-c3cccs3)c(C(=O)C(F)(F)F)s2)cc1	inconclusive: 2.51 µM [inhibitor, full curve]
CN1CCN(c2ccc(CNC(=O)C3(C)Cc4c(-c5ccccc5)ccnc4O3)cc2)CC1 (stereo unspecified)	inactive
CC(=O)c1cccc(-n2c(CCC(=O)O)ccc2-c2ccccc2)c1	inactive
Cc1ccc(NC(=S)NCCc2ccc(Cl)cc2)c(C)c1	inconclusive: 14.1 µM [inhibitor, single point]
O=C(c1ccccc1)N(Cc1nc2ccccc2c(=O)[nH]1)C1CCCCC1	inactive
COc1ccccc1NC(=O)c1ccc(-c2ccc(Br)cc2)o1	inconclusive: 8.91 µM [inhibitor, partial curve, poor fit]
O=C(NNC1=Nc2ccccc2SC1)c1ccc(Cl)cc1	inconclusive: 12.6 µM [inhibitor, single point]
COc1ccc(C(=O)NNC(=O)c2ccc3ccccc3n2)cc1	inconclusive: 3.55 µM [inhibitor, partial curve, poor fit]
COC(=O)COc1ccc(/C=N/NC(=O)CN(c2ccccc2OC)S(=O)(=O)c2ccccc2)cc1	inconclusive: 12.6 µM [inhibitor, single point]
COc1ccc(C(C)=O)cc1COc1cccc2c1OC(C)(C)C2	inactive

Compound	Potency
C/C(=C\C(=S)Nc1ccccc1)Nc1cccc2ccccc12	inconclusive: 12.6 µM [inhibitor, single point]
Cn1cc(CN2CCCC(C(=O)c3ccc(-c4ccccc4)cc3)C2)cn1 (stereo unspecified)	inconclusive: 28.2 µM [inhibitor, single point]
Cc1cc(N2CCC(C)CC2)nc2cccc(O)c12	inconclusive: 1.41 µM [inhibitor, full curve]
COc1ccc(-c2[nH]ncc2CN(C)CCCN2CCOCC2)cc1F	inactive
COc1ccc2c(c1)c(CC(=O)NCc1cc([N+](=O)[O-])ccc1O)c(C)n2C(=O)c1ccc(Cl)cc1	inconclusive: 12.6 µM [inhibitor, single point]
O=C1c2ccccc2C(=O)c2c(NCCCN(CCO)CCO)cccc21	inconclusive: 12.6 µM [inhibitor, single point]
CC1(C(=O)NCc2cccs2)Cc2c(-c3ccccc3)ccnc2O1 (stereo unspecified)	inconclusive: 1.78 µM [inhibitor, full curve, poor fit]
Cc1ccc(-n2nc3c(=O)n(CC(=O)NCCc4ccc(Cl)cc4)nc(C)c3c2C)cc1	inactive
COc1ccc(C(=O)Cn2cnc3ccccc3c2=O)c(OC)c1	inactive
O=C(c1nc2ccc(Cl)cn2c1CNCC[C@@H]1C[C@@H]2C=C[C@H]1C2)N1CCCCCCC1	inconclusive: 28.2 µM [inhibitor, single point]
S=C(Nc1cccc(Cl)c1)Nc1ccccc1Oc1ccccc1	inconclusive: 10 µM [inhibitor, partial curve, poor fit]
Cc1cccc(OCC(=O)N/N=C/c2cn[nH]c2-c2ccc(Cl)c(Cl)c2)c1	inconclusive: 12.6 µM [inhibitor, single point]
CCOC(=O)N1CCN(C(=S)NC(=O)c2cccc(OC)c2)CC1	inconclusive: 28.2 µM [inhibitor, single point]
CN(C)c1nc(N/N=C/c2ccccc2O)nc(Nc2ccc(F)cc2)n1	inconclusive: 3.55 µM [inhibitor, full curve]
Cc1cnc(C(=O)OCc2cc(=O)n3c(C)cccc3n2)cn1	inconclusive: 28.2 µM [inhibitor, single point]
O=C(Nc1ccc(S(=O)(=O)NC2=NCCCCC2)cc1)c1ccc([N+](=O)[O-])s1	inconclusive: 28.2 µM [inhibitor, single point]
CC(=O)c1c(C)oc2ccc(N(C(=O)c3ccncc3)S(=O)(=O)c3ccccc3)cc12	inconclusive: 20 µM [inhibitor, single point]
Cc1ccc(NS(=O)(=O)c2ccc3[nH]c4c(c3c2)CCCCCC4)cc1Cl	inconclusive: 14.1 µM [inhibitor, single point]
O=C(Nc1sc(-c2ccccc2)cc1C(=O)O)c1ccccc1	inactive
Cc1cccc(NC(=S)N=Nc2c(O)[nH]c3ccccc23)c1	active: 10 µM
Cc1cccc(C)c1NC(=S)N=Nc1c(O)n(C)c2ccc(S(=O)(=O)N3CCOCC3)cc12	inconclusive: 1.58 µM [inhibitor, partial curve, poor fit]
COc1ccc(/C=C/C(=O)NCC(=O)N/N=C(/C)c2ccco2)cc1	inactive
Cc1[nH]n(-c2ccc([N+](=O)[O-])cc2)c(=O)c1C=NCCN1CCN(C(=O)c2cccc(F)c2)CC1	inconclusive: 25.1 µM [inhibitor, single point]
